According to patent US20260297121A1, “MITHRAMYCIN (MTM) 2’ OXIMES” (University of Kentucky Research Foundation, priority 2023, published 2026):
For at least one compound, name, drawing or mass did not settle the structure.

Legend:
Assay type in all cases: cell-based
DU145 = test: Cytotoxicity, resazurin fluorescence, DU145; conditions: Table 6; 72 hr; non EWS cells
HS68 = test: Cytotoxicity, 72 hr resazurin assay, HS68 fibroblast; conditions: non-tumor control
Text: A fibroblast cell line (HS68 (FIG. 2E)) was used as a non-tumor control. The area under the concentration-efficacy curve (AUC; possible range of 0-20000) was used to estimate an alternate metric to GI50 for cases of shallow efficacy (e.g., the limited effect in HS68 cells).

PAX3-FOXO1 = test: Western blot, PAX3-FOXO1 expression; conditions: RH30 and RH41 (fusion-positive); 10 nM, 24 hr; normalized to GAPDH, relative to DMSO
PC3 = test: Cytotoxicity, resazurin fluorescence, PC3; conditions: Table 5; 72 hr
Method: Exemplary compounds of the presently-disclosed subject matter were assessed for cytotoxicity (Table 5) in Ewing sarcoma (TC32) and non-Ewing (PC3 prostate cancer). […] Cells (1000-5000/well) were seeded in 96-well plates and allowed to attach and grow for 24 hr prior to adding compounds in half-log increments from 0.3 nM-10 μM. Cell viability was assessed after 72 hr continuous incubation with compounds using resazurin fluorescence. GI50 values were estimated using GraphPad Prism.

TC32 cells = test: Potency IC50 in TC32 cells and selectivity; conditions: IC50 in PC3/IC50 in TC32; for In vitro Selectivity: Table 4
Method: Exemplary compounds of the presently-disclosed subject matter were assessed for activity, including clearance, potency, and selectivity. Results from studies are compiled in Tables 2-4.
Desirable clearance was identified at lower values of mL hr^−1kg^−1 (e.g., about ≤10 mL hr^−1 kg^−1), desirable potency was identified at lower values of IC50 (e.g., about ≤10 nM in TC32 cells), and desired selectivity was identified at higher ratios of IC50 in PC3/IC50 in TC32 (e.g. about >10).

c-Myc = test: Western blot, c-Myc expression; conditions: 10 nM, 24 hr; FIG. 3C and 3D
ALK = test: Western blot, ALK expression; conditions: RH30 and RH41; 10 nM, 24 hr; data not shown
MET = test: Western blot, MET expression; conditions: RH30 and RH41; 10 nM, 24 hr; data not shown
FGFR4 = test: Western blot, FGFR4 expression; conditions: RH30 and RH41; 10 nM, 24 hr; data not shown

Compound: COC(C(=NOCc1cc2ccccc2[nH]1)C(O)C(C)O)C1Cc2cc3cc(OC4CC(OC5CC(O)C(O)C(C)O5)C(O)C(C)O4)c(C)c(O)c3c(O)c2C(=O)C1OC1CC(OC2CC(OC3CC(C)(O)C(O)C(C)O3)C(O)C(C)O2)C(O)C(C)O1 (stereo not drawn) [YL-C09]
- GI50 (DU145): 19 nM
- effect in HS68 cells (HS68): nominal
- expression of PAX3-FOXO1 (PAX3-FOXO1): decreased expression
- GI50 (PC3): 19 nM
- Selectivity Ratio (TC32 cells; Table 2): 2.9
- c-Myc expression (c-Myc): decreased
- expression of ALK (ALK): decreased expression
- expression of MET (MET): decreased expression
- expression of FGFR4 (FGFR4): decreased expression

Compound: COC(C(=NOCCNC(=O)c1[nH]c2ccc(Cl)cc2c1-c1c(C)noc1C)C(O)C(C)O)C1Cc2cc3cc(OC4CC(OC5CC(O)C(O)C(C)O5)C(O)C(C)O4)c(C)c(O)c3c(O)c2C(=O)C1OC1CC(OC2CC(OC3CC(C)(O)C(O)C(C)O3)C(O)C(C)O2)C(O)C(C)O1 (stereo not drawn) [YL-C110]
- effect in HS68 cells (HS68): nominal
- expression of PAX3-FOXO1 (PAX3-FOXO1): decreased expression
- Selectivity Ratio (TC32 cells; Table 2): 3.3
- c-Myc expression (c-Myc): decreased
- expression of ALK (ALK): decreased expression
- expression of MET (MET): decreased expression
- expression of FGFR4 (FGFR4): decreased expression

Compound: COC(C(=NOCCNC(=O)c1[nH]c2ccc(Cl)cc2c1-c1ccccc1)C(O)C(C)O)C1Cc2cc3cc(OC4CC(OC5CC(O)C(O)C(C)O5)C(O)C(C)O4)c(C)c(O)c3c(O)c2C(=O)C1OC1CC(OC2CC(OC3CC(C)(O)C(O)C(C)O3)C(O)C(C)O2)C(O)C(C)O1 (stereo not drawn) [YL-B176]
- Selectivity Ratio (TC32 cells; Table 2): 12.8
- Selectivity Ratio (TC32 cells; Table 3): 13
- In vitro Selectivity (TC32 cells): 12.8

Compound: CO[C@H](C(=NOCCNC(=O)c1cc2cc(Cl)cc(Cl)c2[nH]1)[C@@H](O)[C@@H](C)O)[C@@H]1Cc2cc3cc(O[C@H]4C[C@@H](O[C@H]5C[C@@H](O)[C@H](O)[C@@H](C)O5)[C@H](O)[C@@H](C)O4)c(C)c(O)c3c(O)c2C(=O)[C@H]1O[C@H]1C[C@@H](O[C@H]2C[C@@H](O[C@H]3C[C@](C)(O)[C@H](O)[C@@H](C)O3)[C@@H](O)[C@@H](C)O2)[C@H](O)[C@@H](C)O1 [YL-B167]
- Selectivity Ratio (TC32 cells; Table 2): 3.2

Compound: COc1cc2cc(C(=O)NCCON=C([C@@H](O)[C@@H](C)O)[C@@H](OC)[C@@H]3Cc4cc5cc(O[C@H]6C[C@@H](O[C@H]7C[C@@H](O)[C@H](O)[C@@H](C)O7)[C@H](O)[C@@H](C)O6)c(C)c(O)c5c(O)c4C(=O)[C@H]3O[C@H]3C[C@@H](O[C@H]4C[C@@H](O[C@H]5C[C@](C)(O)[C@H](O)[C@@H](C)O5)[C@@H](O)[C@@H](C)O4)[C@H](O)[C@@H](C)O3)[nH]c2cc1OC [YL-B158]
- Selectivity Ratio (TC32 cells; Table 2): 8.4

Compound: CO[C@H](C(=NOC[C@@H](Cc1c[nH]c2ccccc12)NC(=O)c1ccc2scnc2c1)[C@@H](O)[C@@H](C)O)[C@@H]1Cc2cc3cc(O[C@H]4C[C@@H](O[C@H]5C[C@@H](O)[C@H](O)[C@@H](C)O5)[C@H](O)[C@@H](C)O4)c(C)c(O)c3c(O)c2C(=O)[C@H]1O[C@H]1C[C@@H](O[C@H]2C[C@@H](O[C@H]3C[C@](C)(O)[C@H](O)[C@@H](C)O3)[C@@H](O)[C@@H](C)O2)[C@H](O)[C@@H](C)O1 [YL-C53]
- Selectivity Ratio (TC32 cells; Table 2): 2.6

Compound: COC(C(=NOCCNC(=O)c1[nH]c2ccc(Cl)cc2c1-c1cccs1)C(O)C(C)O)C1Cc2cc3cc(OC4CC(OC5CC(O)C(O)C(C)O5)C(O)C(C)O4)c(C)c(O)c3c(O)c2C(=O)C1OC1CC(OC2CC(OC3CC(C)(O)C(O)C(C)O3)C(O)C(C)O2)C(O)C(C)O1 (stereo not drawn) [YL-C106]
- Selectivity Ratio (TC32 cells; Table 2): 11.7
- Selectivity Ratio (TC32 cells; Table 3): 12
- In vitro Selectivity (TC32 cells): 11.7

Compound: CO[C@H](C(=NOCCNC(=O)c1[nH]c2ccc(Cl)cc2c1-c1cncnc1)[C@@H](O)[C@@H](C)O)[C@@H]1Cc2cc3cc(O[C@H]4C[C@@H](O[C@H]5C[C@@H](O)[C@H](O)[C@@H](C)O5)[C@H](O)[C@@H](C)O4)c(C)c(O)c3c(O)c2C(=O)[C@H]1O[C@H]1C[C@@H](O[C@H]2C[C@@H](O[C@H]3C[C@](C)(O)[C@H](O)[C@@H](C)O3)[C@@H](O)[C@@H](C)O2)[C@H](O)[C@@H](C)O1 [YL-C122]
- Selectivity Ratio (TC32 cells; Table 2): 6.7

Compound: COC(C(=NOCCCNC(=O)c1[nH]c2ccc(Cl)cc2c1-c1ccc(Cl)cc1)C(O)C(C)O)C1Cc2cc3cc(OC4CC(OC5CC(O)C(O)C(C)O5)C(O)C(C)O4)c(C)c(O)c3c(O)c2C(=O)C1OC1CC(OC2CC(OC3CC(C)(O)C(O)C(C)O3)C(O)C(C)O2)C(O)C(C)O1 (stereo not drawn) [YL-C95]
- Selectivity Ratio (TC32 cells; Table 2): 50

Compound: CO[C@H](C(=NOCC(=O)N[C@@H](Cc1c[nH]c2ccccc12)C(=O)Nc1ccc2scnc2c1)[C@@H](O)[C@@H](C)O)[C@@H]1Cc2cc3cc(O[C@H]4C[C@@H](O[C@H]5C[C@@H](O)[C@H](O)[C@@H](C)O5)[C@H](O)[C@@H](C)O4)c(C)c(O)c3c(O)c2C(=O)[C@H]1O[C@H]1C[C@@H](O[C@H]2C[C@@H](O[C@H]3C[C@](C)(O)[C@H](O)[C@@H](C)O3)[C@@H](O)[C@@H](C)O2)[C@H](O)[C@@H](C)O1 [YL-C39]
- Selectivity Ratio (TC32 cells; Table 2): 3.5

Compound: COC(C(=NOCC(Cc1c[nH]c2ccccc12)NC(=O)c1ccc2scnc2c1)C(O)C(C)O)C1Cc2cc3cc(OC4CC(OC5CC(O)C(O)C(C)O5)C(O)C(C)O4)c(C)c(O)c3c(O)c2C(=O)C1OC1CC(OC2CC(OC3CC(C)(O)C(O)C(C)O3)C(O)C(C)O2)C(O)C(C)O1 (stereo not drawn) [YL-C55]
- Selectivity Ratio (TC32 cells; Table 2): 3.0

Compound: COc1ccc2[nH]c(C(=O)NCCON=C([C@@H](O)[C@@H](C)O)[C@@H](OC)[C@@H]3Cc4cc5cc(O[C@H]6C[C@@H](O[C@H]7C[C@@H](O)[C@H](O)[C@@H](C)O7)[C@H](O)[C@@H](C)O6)c(C)c(O)c5c(O)c4C(=O)[C@H]3O[C@H]3C[C@@H](O[C@H]4C[C@@H](O[C@H]5C[C@](C)(O)[C@H](O)[C@@H](C)O5)[C@@H](O)[C@@H](C)O4)[C@H](O)[C@@H](C)O3)c(-c3ccc(Cl)cc3)c2c1 [YL-C114]
- Selectivity Ratio (TC32 cells; Table 2): 5.2

Compound: CO[C@H](C(=NOCCNC(=O)c1[nH]c2ccc(Cl)cc2c1-c1cnoc1)[C@@H](O)[C@@H](C)O)[C@@H]1Cc2cc3cc(O[C@H]4C[C@@H](O[C@H]5C[C@@H](O)[C@H](O)[C@@H](C)O5)[C@H](O)[C@@H](C)O4)c(C)c(O)c3c(O)c2C(=O)[C@H]1O[C@H]1C[C@@H](O[C@H]2C[C@@H](O[C@H]3C[C@](C)(O)[C@H](O)[C@@H](C)O3)[C@@H](O)[C@@H](C)O2)[C@H](O)[C@@H](C)O1 [YL-C108]
- Selectivity Ratio (TC32 cells; Table 2): 6.6

Compound: COc1ccc2[nH]c(C(=O)NCCON=C([C@@H](O)[C@@H](C)O)[C@@H](OC)[C@@H]3Cc4cc5cc(O[C@H]6C[C@@H](O[C@H]7C[C@@H](O)[C@H](O)[C@@H](C)O7)[C@H](O)[C@@H](C)O6)c(C)c(O)c5c(O)c4C(=O)[C@H]3O[C@H]3C[C@@H](O[C@H]4C[C@@H](O[C@H]5C[C@](C)(O)[C@H](O)[C@@H](C)O5)[C@@H](O)[C@@H](C)O4)[C@H](O)[C@@H](C)O3)cc2c1 [YL-B166]
- Selectivity Ratio (TC32 cells; Table 2): 13.9

Compound: CO[C@H](C(=NOCCNC(=O)c1nnc2nc(C)cc(C)n12)[C@@H](O)[C@@H](C)O)[C@@H]1Cc2cc3cc(O[C@H]4C[C@@H](O[C@H]5C[C@@H](O)[C@H](O)[C@@H](C)O5)[C@H](O)[C@@H](C)O4)c(C)c(O)c3c(O)c2C(=O)[C@H]1O[C@H]1C[C@@H](O[C@H]2C[C@@H](O[C@H]3C[C@](C)(O)[C@H](O)[C@@H](C)O3)[C@@H](O)[C@@H](C)O2)[C@H](O)[C@@H](C)O1 [YL-B162]
- Selectivity Ratio (TC32 cells; Table 2): 1.1

Compound: COC(C(=NOCCNC(=O)c1[nH]c2ccc(Cl)cc2c1-c1ccc(F)c(Cl)c1)C(O)C(C)O)C1Cc2cc3cc(OC4CC(OC5CC(O)C(O)C(C)O5)C(O)C(C)O4)c(C)c(O)c3c(O)c2C(=O)C1OC1CC(OC2CC(OC3CC(C)(O)C(O)C(C)O3)C(O)C(C)O2)C(O)C(C)O1 (stereo not drawn) [YL-C116]
- Selectivity Ratio (TC32 cells; Table 2): 8.1
- Selectivity Ratio (TC32 cells; Table 3): 7.6

Compound: COC(C(=NOCCNC(=O)c1cc2cc(Br)ccc2[nH]1)C(O)C(C)O)C1Cc2cc3cc(OC4CC(OC5CC(O)C(O)C(C)O5)C(O)C(C)O4)c(C)c(O)c3c(O)c2C(=O)C1OC1CC(OC2CC(OC3CC(C)(O)C(O)C(C)O3)C(O)C(C)O2)C(O)C(C)O1 (stereo not drawn) [YL-B169]
- Selectivity Ratio (TC32 cells; Table 2): 17.8
